This is one part of the list. Sequences were assembled here from the parent chain. Inactive controls read about 0.05.
B1: TEV protease; numbered along this chain (parent)
chain: MGESLFKGPRDYNPISSSICHLTNESDGHTTSLYGIGFGPFIITNKHLFRRNNGTLVVQSLHGVFKVKDTTTLQQHLVDGRDMIIIRMPKDFPPFPQKLKFREPQREERICLVTTNFQTKSMSSMVSDTSCTFPSGDGIFWKHWIQTKDGQCGSPLVSTRDGFIVGIHSASNFTNTNNYFTSVPKNFMELLTNQEAQQWVSGWRLNADSVLWGGHKVFMVKPEEPFQPVKEATQL

Variants of: B1
Test: raw area under fraction-flipped curve 0-4 h after induction (AUC4h, not background-subtracted), DNA-recorder readout of cleavage of the substrate (dimensionless); higher = more cleavage of the substrate by the protease variant
Settings: temperature: 34 °C; time window: 0-4 h after rhamnose induction
Description: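 In vivo DNA recorder in E. coli TOP10(DE3) ΔrhaA at 34 °C. Each TEVp single-site mutant (parent TEVp 0) is paired with a single-site variant of the 7-mer TEVs (canonical ENLYFQ|S). The substrate sits between flexible linkers in a Bxb1-sfGFP-TEVs-SsrA fusion, so cleavage stabilises Bxb1 and speeds flipping of a recombination array, read by NGS. The value is the raw area under the fraction-flipped curve over 0-4 h after rhamnose induction (AUC4h), with ≥20 reads per time point. It is not background-subtracted; inactive controls average about 0.047.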
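Also: Bxb1 expression induced with 0.2% (w/v) L-rhamnose at OD600 near 0.5, cultures sampled hourly, flipped fraction per protease–substrate barcode pair counted by paired-end Illumina sequencing.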

Variant | area with substrate ENLYFQC | area with substrate ENLYFQD | area with substrate ENLYFQG | area with substrate ENLYFQI | area with substrate ENLYFQK | area with substrate ENLYFQL | area with substrate ENLYFQM | area with substrate ENLYFQN | area with substrate ENLYFQR | area with substrate ENLYFQS | area with substrate ENLYFQT | area with substrate ENLYFQV | area with substrate ENLYFQW | area with substrate ENLYFQE | area with substrate ENLYFQF | area with substrate ENLYFQH | area with substrate ENLYFQQ | area with substrate ENLYFQY | area with substrate ENLYFQP
I167R | 0.063 | 0.0488 | 0.0484 | 0.0473 | 0.0405 | 0.005 | 0.0523 | 0.0399 | 0.0596 | 0.0485 | 0.0429 | 0.0561 | 0.0477 |  |  |  |  |  | 
V157W | 0.0702 | 0.0503 | 0.125 | 0.0543 | 0.059 | 0.0552 | 0.061 | 0.0635 | 0.0493 | 0.0647 | 0.0478 | 0.0461 | 0.0502 | 0.0546 | 0.0539 | 0.0639 | 0.0565 | 0.055 | 
V157E | 0.0503 |  |  | 0.041 | 0.0505 | 0.0522 |  | 0.0476 |  | 0.055 | 0.0511 | 0.0486 |  |  | 0.056 | 0.0421 |  | 0.0376 | 
T132E | 0.0518 | 0.0428 | 0.0602 |  | 0.0843 | 0.0445 | 0.0464 | 0.0591 | 0.0469 | 0.059 | 0.0497 |  | 0.0477 |  |  | 0.0503 |  | 0.0204 | 
T147R | 0.0726 | 0.0626 |  | 0.0333 | 0.0462 | 0.059 | 0.0469 | 0.0541 | 0.0582 | 0.0662 |  | 0.0448 | 0.0525 |  | 0.053 | 0.0728 |  | 0.06 | 
T147F | 0.0595 |  | 0.0823 | 0.0582 |  |  | 0.0579 | 0.0594 | 0.0672 | 0.0601 | 0.112 | 0.0578 | 0.0472 | 0.0614 | 0.0602 |  |  | 0.0596 | 0.0193
F133L | 0.0901 |  | 0.0994 | 0.0599 |  | 0.0539 | 0.103 | 0.0827 | 0.0652 | 0.117 | 0.0668 |  |  |  | 0.0589 |  |  |  | 
Q151T | 0.0933 | 0.0668 | 0.0895 | 0.0708 | 0.0677 |  | 0.0786 | 0.0733 |  | 0.0928 | 0.0509 | 0.0473 | 0.0499 | 0.0739 | 0.0574 | 0.0903 |  |  | 0.0646
Q151Y | 0.106 |  | 0.0972 |  | 0.0676 | 0.063 | 0.0747 | 0.0772 | 0.0677 | 0.0808 | 0.0783 | 0.0575 |  |  |  |  | 0.0676 | 0.0588 | 0.0834
Q75A | 0.0895 |  | 0.0909 | 0.0457 | 0.0588 | 0.0663 | 0.0828 | 0.0778 | 0.0564 | 0.105 |  |  | 0.0677 |  | 0.069 |  | 0.0883 |  | 0.0661
N116P | 0.133 | 0.0449 | 0.0745 | 0.0508 | 0.0578 | 0.0597 | 0.0825 | 0.0823 | 0.0653 | 0.0979 |  | 0.0677 | 0.0621 |  |  | 0.0549 |  | 0.0833 | 0.0415
L99Y | 0.093 | 0.0639 | 0.0737 | 0.0566 | 0.0591 | 0.0427 | 0.0714 |  | 0.0603 | 0.0787 | 0.0577 |  | 0.0567 |  | 0.0541 | 0.0466 |  | 0.0656 | 

From the supplement of paper PMC12217912
